Measurements published in the antibiotic and cytotoxicity screens of Wong et al. (2023).
This is one part of the list.

Columns and labels:
HSkMC = human skeletal muscle cells; assay: cytotoxicity call (relative viability < 0.9); conditions: 10 µM
HepG2 = assay: cytotoxicity call (relative viability < 0.9); conditions: 10 µM
S. aureus RN4220 = assay: growth inhibition call (relative growth <= 0.2); conditions: 50 µM

Row | Compound | cytotoxicity call (HSkMC) | cytotoxicity call (HepG2) | growth inhibition call (S. aureus RN4220)
1 | Cc1ccc(-c2cnc(-c3ccc(Br)cc3)o2)cc1 | inactive | inactive | inactive
2 | C[C@@H]1CN([C@@H](C)CO)C(=O)CCCn2nncc2CO[C@H]1CN(C)S(=O)(=O)c1ccc(C#N)cc1 | inactive | inactive | inactive
3 | C[C@@H]1CCCCO[C@@H](CN(C)Cc2ccc(C(=O)O)cc2)[C@@H](C)CN([C@H](C)CO)C(=O)c2cc(NC(=O)c3ccccc3)ccc2O1 | inactive | inactive | inactive
4 | NC1(C(=O)N2CCCN(S(=O)(=O)c3ccccc3)CC2)Cc2ccccc2C1 | inactive | inactive | inactive
5 | O=C(Nc1ccc(Cl)cc1)Nc1ccc(Cl)c(Cl)c1 | active | active | active
6 | CC1(C)SC2C(NC(=O)C(C(=O)[O-])c3ccsc3)C(=O)N2C1C(=O)[O-].[Na+].[Na+] (stereo not drawn) | inactive | inactive | inactive
7 | C[C@H]1CN([C@@H](C)CO)C(=O)CCCn2nncc2CO[C@@H]1CN(C)Cc1ccc(C(=O)Nc2ccccc2N)cc1 | inactive | inactive | inactive
8 | COCCO[C@H]1CCN[C@H]1Cc1cnn(C)c1 | inactive | inactive | inactive
9 | C[C@H](O)C#Cc1ccc2c(c1)O[C@@H](CN(C)C(=O)c1ccccc1)[C@@H](C)CN([C@H](C)CO)S2(=O)=O | inactive | inactive | inactive
10 | CN(C)CC(=O)N[C@H]1CC[C@@H](CCn2cc(CN(C)C)nn2)O[C@@H]1CO | inactive | inactive | inactive
11 | C[C@@H]1CN([C@H](C)CO)C(=O)c2cc(NC(=O)Nc3cccc4ccccc34)ccc2O[C@H]1CN(C)S(=O)(=O)c1cccs1 | inactive | inactive | inactive
12 | CC(C)(C)NC[C@@H](O)CSc1nc(-c2ccc(C(N)=O)s2)cs1 | inactive | inactive | inactive
13 | C[C@H]1CN([C@@H](C)CO)C(=O)Cc2cc(N(C)C)ccc2O[C@@H]1CN(C)C(=O)Nc1ccc2c(c1)OCO2 | inactive | inactive | inactive
14 | CC(C)NC(=O)N(C)C[C@@H]1Oc2c(NS(=O)(=O)c3cn(C)cn3)cccc2C(=O)N([C@@H](C)CO)C[C@@H]1C | inactive | inactive | inactive
15 | COc1ccc(CN(C)C[C@@H]2OCCCC[C@@H](C)Oc3ccc(NS(=O)(=O)c4ccc(C)cc4)cc3C(=O)N([C@H](C)CO)C[C@H]2C)cc1 | inactive | inactive | inactive
16 | CC(C)N1CC=C[C@@]23O[C@@H]4C=CCCOC(=O)[C@@H]4[C@H]2C(=O)N([C@@H](C)CO)[C@@H]3C1=O | inactive | inactive | inactive
17 | O=C(Nc1ccc(-c2ccccc2)cc1)[C@H]1C[C@@H]1c1ccccc1 | inactive | inactive | inactive
18 | C[C@@H]1CN([C@H](C)CO)C(=O)c2ccccc2-c2ccccc2CO[C@@H]1CN(C)Cc1ccc(-c2ccccc2)cc1 | inactive | inactive | inactive
19 | C[C@@H]1CN([C@H](C)CO)C(=O)CCCn2nncc2CO[C@H]1CN(C)C(=O)Nc1cccc2ccccc12 | inactive | inactive | inactive

Row | Compound | cytotoxicity call (HSkMC) | cytotoxicity call (HepG2) | growth inhibition call (S. aureus RN4220)
20 | C[C@H]1CN([C@@H](C)CO)C(=O)c2cccc(NC(=O)c3nc4ccccc4s3)c2O[C@H]1CN(C)Cc1ccc(Oc2ccccc2)cc1 | inactive | active | inactive
21 | COc1ccc(CCNC(=O)Nc2nn(Cc3ccc(COc4cccc(OC)c4)cc3)c3ccccc23)cc1 | inactive | inactive | inactive
22 | O=C(O)C1CCNCC1 | inactive | inactive | inactive
23 | C[C@H]1CN([C@@H](C)CO)C(=O)Cc2cc(NS(=O)(=O)c3ccc(Cl)cc3)ccc2O[C@H]1CN(C)Cc1ccc(C(=O)Nc2ccccc2N)cc1 | inactive | inactive | inactive
24 | COc1ccc(CN(C)C[C@H]2Oc3ccc(NC(=O)Cn4cnnn4)cc3CC(=O)N([C@H](C)CO)C[C@@H]2C)cc1 | inactive | inactive | inactive
25 | CCCCCCC#C[Si](O[C@H](c1ccccc1)c1cn([C@H](CO)Cc2ccccc2)nn1)(C(C)C)C(C)C | inactive | inactive | inactive
26 | COc1ccc(CN(C)C[C@H]2Oc3c(NS(C)(=O)=O)cccc3C(=O)N([C@@H](C)CO)C[C@H]2C)cc1 | inactive | inactive | inactive
27 | CC(C)C[C@H](NC(=O)[C@H](CCc1ccccc1)NC(=O)CN1CCOCC1)C(=O)N[C@@H](Cc1ccccc1)C(=O)N[C@@H](CC(C)C)C(=O)[C@@]1(C)CO1 | active | active | inactive
28 | CC[C@H](NC(=O)[C@H](C)NC)C(=O)N1C[C@@H](O)C[C@H]1Cc1c(-c2[nH]c3cc(F)ccc3c2C[C@@H]2C[C@H](O)CN2C(=O)[C@H](CC)NC(=O)[C@H](C)NC)[nH]c2cc(F)ccc12 | inactive | inactive | inactive
29 | O=C(CCCCCCC(=O)Nc1ccc([C@@H]2O[C@H](CSc3ccncc3)C[C@H](c3ccccc3)O2)cc1)NO | inactive | inactive | inactive
30 | COc1ccc(S(=O)(=O)N(C)C[C@H]2Oc3ccc(NC(=O)Cc4ccccc4)cc3C(=O)N([C@H](C)CO)C[C@H]2C)cc1 | inactive | inactive | inactive
31 | CO/N=C1\C[C@]2(C[C@@H]3C[C@@H](C/C=C(\C)C[C@@H](C)/C=C/C=C4\CO[C@@H]5[C@H](O)C(C)=C[C@@H](C(=O)O3)[C@]45O)O2)O[C@H](/C(C)=C/C(C)C)[C@H]1C | active | active | inactive
32 | COC(=O)[C@@H]1C(=O)NC[C@H]1c1ccccc1 | inactive | inactive | inactive
33 | C[C@H](O)C#Cc1ccc2c(c1)O[C@@H](CN(C)C(=O)c1ccccc1)[C@@H](C)CN([C@@H](C)CO)S2(=O)=O | inactive | inactive | inactive
34 | COc1ccc(S(=O)(=O)N(C)C[C@@H]2OCCCC[C@@H](C)Oc3ccc(NS(C)(=O)=O)cc3C(=O)N([C@H](C)CO)C[C@H]2C)cc1 | inactive | inactive | inactive
35 | CC(C)NC(=O)Nc1cccc2c1O[C@H](CN(C)S(=O)(=O)c1cn(C)cn1)[C@@H](C)CN([C@@H](C)CO)C2=O | inactive | inactive | inactive
36 | C[C@@H]1CCCCO[C@H](CN(C)Cc2ccc(C(F)(F)F)cc2)[C@H](C)CN([C@@H](C)CO)C(=O)c2cc(NS(=O)(=O)c3ccccc3)ccc2O1 | inactive | active | inactive
37 | C[C@@H]1CN([C@H](C)CO)C(=O)c2cc(NC(=O)CCC(F)(F)F)ccc2O[C@@H](C)CCCCO[C@H]1CN(C)C(=O)Nc1ccccc1 | inactive | inactive | inactive
38 | COCC#Cc1ccc2c(c1)O[C@H](CN(C)Cc1ccc(F)cc1)[C@@H](C)CN([C@@H](C)CO)S2(=O)=O | inactive | inactive | inactive

Row | Compound | cytotoxicity call (HSkMC) | cytotoxicity call (HepG2) | growth inhibition call (S. aureus RN4220)
39 | C[C@@H]1CN([C@@H](C)CO)C(=O)Cc2cc(NC(=O)Nc3ccc(F)cc3)ccc2O[C@H]1CN(C)C(=O)Nc1ccc(C(F)(F)F)cc1 | inactive | inactive | inactive
40 | COc1ccc(S(=O)(=O)Nc2ccc3c(c2)CC(=O)N([C@H](C)CO)C[C@H](C)[C@@H](CN(C)C(=O)Nc2c(C)noc2C)O3)cc1 | inactive | inactive | inactive
41 | C#CC1(O)CCC2C3CCC4=C(CCC(=O)C4)C3CCC21C (stereo not drawn) | inactive | inactive | inactive
42 | C[C@H](CO)N1C[C@H](C)[C@H](CN(C)S(C)(=O)=O)OCCCC[C@H](C)Oc2ccc(NS(=O)(=O)c3cn(C)cn3)cc2C1=O | inactive | inactive | inactive
43 | CS(=O)(=O)N1[C@@H]2c3ccc(-c4cccc(F)c4)c(=O)n3C[C@H]1[C@H](CO)[C@H]2C(=O)N1CCOCC1 | inactive | inactive | inactive
44 | C[C@H]1CN([C@@H](C)CO)C(=O)c2cc(NS(=O)(=O)c3cn(C)cn3)ccc2O[C@@H]1CN(C)Cc1ccc2c(c1)OCO2 | inactive | inactive | inactive
45 | CNC(=O)c1c(I)c(NC(C)=O)c(I)c(C(=O)O)c1I | inactive | inactive | inactive
46 | COc1ccc(NC(=O)Nc2ccc3c(c2)C(=O)N([C@H](C)CO)C[C@@H](C)[C@@H](CN(C)Cc2ccc(-c4ccccc4)cc2)O3)cc1 | inactive | active | inactive
47 | Cc1noc(C)c1NC(=O)Nc1ccc2c(c1)C(=O)N([C@H](C)CO)C[C@@H](C)[C@@H](CN(C)CC1CCCCC1)OCCCC[C@@H](C)O2 | inactive | inactive | inactive
48 | C[C@@H]1CCCCO[C@@H](CN(C)Cc2ccc(Cl)c(Cl)c2)[C@H](C)CN([C@H](C)CO)C(=O)c2cc(NC(=O)Nc3ccc4c(c3)OCO4)ccc2O1 | inactive | inactive | inactive
49 | CNC[C@H]1OCCCC[C@@H](C)Oc2ccc(NS(=O)(=O)c3c(C)noc3C)cc2C(=O)N([C@H](C)CO)C[C@@H]1C | inactive | inactive | inactive
50 | C[C@H](CO)N1C[C@H](C)[C@@H](CN(C)S(=O)(=O)c2cn(C)cn2)Oc2ccc(NC(=O)CCN3CCOCC3)cc2CC1=O | inactive | inactive | inactive
51 | O=C1c2ccccc2C(=O)C1c1ccccc1 | inactive | inactive | inactive
52 | C[C@H]1CCCCO[C@@H](CN(C)CC2CCCCC2)[C@@H](C)CN([C@@H](C)CO)C(=O)c2cc(NC(=O)Cc3ccccc3)ccc2O1 | inactive | active | inactive
53 | CCS(=O)(=O)NCC[C@H]1CC[C@H](NC(=O)C2CC2)[C@@H](CO)O1 | inactive | inactive | inactive
54 | C=C[C@@H](N)CCC(=O)O | inactive | inactive | inactive
55 | C[C@@H]1CN([C@@H](C)CO)C(=O)c2cc(NC(=O)C3CC3)ccc2O[C@@H]1CN(C)Cc1ccc(-c2ccccc2)cc1 | inactive | inactive | inactive
56 | Cc1noc(C)c1NC(=O)N(C)C[C@@H]1OCCCC[C@@H](C)Oc2ccc(NC(=O)Cc3ccccc3)cc2C(=O)N([C@@H](C)CO)C[C@@H]1C | inactive | inactive | inactive
